# Laboratory results as given in the supplement of paper PMC10126150.
# Values marked as one replicate rest on one cluster of the flow cell; about a third of the high ones do not repeat.
# System: ATP
# Assay: switch fluorescence ratio, 500 uM ATP over buffer (Cy3 cluster intensity, sum of 5 cycles each) (fold (ratio)); higher = stronger signal-on switching upon ATP binding; sequences stand for … in TCGTCGGCAGCGTCAGATGTGTATAAGAGACAGTTTTTTTTTTTTTTTTTTTTTTTTT…TC
# Conditions: aptamer strand: ATP DNA aptamer (quencher-CACCTGGGGGAGTATTGCGGAGGAAGG + anchor), 100 nM annealed; ATP concentration: 500 uM; one replicate
# How it was run: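 Switching-strand clusters labelled with Cy3 on a modified Illumina MiSeq flow-cell were annealed to 100 nM quencher-labelled ATP aptamer, imaged in selection buffer, and re-imaged after 15 min with 500 uM ATP at 22 °C. This was done over five cycles with NaOH stripping and re-annealing in between. The fluorescence ratio is summed target-cycle over summed buffer-cycle Cy3 intensity per cluster, averaged per switch-domain sequence, excluding clusters outside 100-1000 RFU.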
# 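Further: ATP exposure 15 min at 22 °C before imaging.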
row,Sequence,switch fluorescence ratio
1,TAGTCGTACG,1
2,CAGAAGCATT,1.29
3,CGTACGGTGG,0.961
4,TGGCACTATT,0.965
5,GTGCGCCCGA,1.01
6,TACAACTACG,1.18
7,TACGATCATC,1.02
8,TCTTGGTCTG,1
9,TGCCCATCTT,0.982
10,GACGCGTCGG,0.955
11,TTAGATTGGC,0.997
12,TTATACCTAC,1.31
13,TTTAGCCAGG,1.11
14,GTCCATAGTC,1.02
15,TTGTGTACGA,1.03
16,TACCGATCTC,1.25
17,ATATTAACGT,0.974
18,GCTGAACTCT,1.05
19,GAGCTACTTT,0.975
20,CGTGCGGCCA,0.99
21,TAAACAAGGC,1.02
22,ATAAATTTGA,0.995

row,Sequence,switch fluorescence ratio
1,AGGTAATGTC,0.928
2,AGAGGATTCA,1.01
3,TGAGTAAGT,1.02
4,TTAGCTCAGA,0.975
5,TGGATAACAG,0.967
6,ACCTGAAAAT,1.02
7,AACATCATCG,1.14
8,CTTCCAGGTT,1.27
9,AAATTTGTAA,1.02
10,CCAAATAGTT,0.968
11,ACTCCAAACC,1.45
12,ATATCGTGCC,0.944
13,ATATTCGATA,0.975
14,TTAGAATATA,0.996
15,TGATTACACT,1.01
16,ACTGATACGA,1.18
17,TACTTCTTGA,0.996
18,AAAATAGCGC,1.03
19,GCAGTGAAGG,1.05
20,CGGGTATGTC,0.95
21,GTGAGACTCA,1.03
22,TGAGGAATAT,1

row,Sequence,switch fluorescence ratio
1,ACTGGACGCG,1.1
2,AAGGCCACAT,1.03
3,ATCGCCTGCT,1.01
4,GGTCTGGCGC,1.03
5,GCTGGGCGGG,1
6,GCGGTTGCAG,1.02
7,TAATATCGT,1.03
8,GAGTGTCTCG,1.01
9,AATCTGAAGG,1.03
10,ACCGTGCCTC,1.33
11,TCGGATTAGA,1.01
12,CATGACGGT,0.981
13,TTTGGATCAA,0.995
14,ACAGTTGGCA,0.987
15,GGGATTTCAG,1.01
16,TGTCTTATTA,0.982
17,AGGTATTCCT,0.995
18,GGCGTTTGCG,1.03
19,CGGCTGGCTC,1.04
20,GCGTAATTTG,0.959
21,ACAGGAAGTC,0.983
22,AGTCAGCTAG,0.99

row,Sequence,switch fluorescence ratio
1,CGAATATTCA,1.01
2,AATCGGTATA,1.01
3,CTTGGCCAAG,0.941
4,AAAACATCCA,1.03
5,CGGTTTCGGC,1.03
6,GAACTTGTTC,0.98
7,GGCGGATGCC,0.997
8,AGGTTGAGTC,0.962
9,TAACAATGTT,0.999
10,CCTAAATATT,1.04
11,CTAGAAACAG,0.991
12,AGGGCTTTCA,0.974
13,TATGGATTG,0.997
14,AATGTGGGGC,0.965
15,ATGTAGGCCT,0.966
16,TTTGAACTCT,1.02
17,CCATTGCCCG,0.984
18,GACCTCATTC,1.03
19,GTTTGGTTTG,1.01
